Here are results for 89 sequences from the supplement of paper PMC11417369.

Some of the results follow.

The subject of the experiment is PF3D7_0420300 AP2 domain 1 (GST-tagged). Put plainly: gcPBM binding intensity (ln(normalized median fluorescence intensity)); higher = stronger DNA binding. Summed up:
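GST-fused DNA-binding domains of P. falciparum, expressed in E. coli, were applied at about 25 μg on average for 1 h to an Agilent 4 × 180k array of primer-extended double-stranded 36-bp intergenic genomic probes and negative controls. Binding intensity is the highest Masliner-normalised natural-log median intensity across replicate spots of either probe orientation, measured with Alexa488 anti-GST antibody and a 488 nm scan.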
“ATAAAATAATTAATGGGTACATAATTAAATAAAGAG [XGTACX_site3309]”: the “gcPBM binding intensity (ln)” value came out at 9.52. For the sequence “TTTTAAAAAAAAAAAAAAAAAATTAAAATAATTCAA [TGCATGCA_negctrl_site69]”, the “gcPBM binding intensity (ln)” value came to 8.56. To “AAGAAAAAAAAAAAAAAAAAAAAAAAAAATTTATGA [TGCATGCA_negctrl_site294]” belongs 8.81; to “CAGTTATTTTAATGTGGTACACAATTTTAAAATTAT [XGTACX_site8571]”, 9.01.

With “AAATATAATTTGCGATGTACACATATATATTTATTT [XGTACX_site1568]”, the “gcPBM binding intensity (ln)” value came out at 9.27.

With “TGAAATGATATATAAACACACATATATAAATATGTA [CACACA_site7616]”, the “gcPBM binding intensity (ln)” value was 9.35. For the sequence “TACCTATACCTATACACACACACACGGAAATAAATA [CACACA_site6750]”, the “gcPBM binding intensity (ln)” value was found to be 10.3. Under “ATATAAAATGAACATAGTACTTTTTATATATTTTAA [XGTACX_site7461]” stands 8.9; under “AATTTTATAAAAAGTAGTACATATCAAACACCTTGA [XGTACX_site2297]”, 9.16. For “TGACTTTTTTTTTTTTTTTTTTTTTTTTATCTTTTT [CACACA_negctrl_site481]”, the “gcPBM binding intensity (ln)” value turned out to be 9.16. For the sequence “TTATGATTATAACGTTTTGACATTAGGCATATATAT [CACACA_negctrl_site1396]”, the “gcPBM binding intensity (ln)” value stood at 9.01. As for “TATATCATAAAAAATTGTACATATATATATTATATA [XGTACX_site6726]”, the “gcPBM binding intensity (ln)” value is 9.1.

Turning to “TGATGGGACATAAATATTGAGATGATCATAAGATAA [TGCATGCA_negctrl_site276]”, the “gcPBM binding intensity (ln)” value is 9.07. For the sequence “AAAGATAATATATGCACACATATAAATATATAAATA [CACACA_site3477]”, the “gcPBM binding intensity (ln)” value turned out to be 9.35. To “TATTTATTATATAAATGTACATAATATATGTATGTC [XGTACX_site2815]” belongs 9.06; to “AAAAAAAAAAAAAGTACACACTTTTGCGTACAAGTA [CACACA_site5672]”, 9.32. Regarding “ATTCTGAATGTTATGCGTACATATTAATCCTATTTA [XGTACX_site1216]”, the “gcPBM binding intensity (ln)” value turned out to be 9.22. Turning to “TAAGGTTCATTAAAGTGTACACATAAATACCGTAAC [XGTACX_site8212]”, the “gcPBM binding intensity (ln)” value amounted to 9.38. Regarding “TGTAATAATTATTGCACGCACACAAAAACCTATAGA [CACACA_site2932]”, the “gcPBM binding intensity (ln)” value was found to be 9.48. To “AAGTAAATATAATAAGGTACACATAAATAAATAAAT [XGTACX_site1740]” belongs 9.62; to “GGAAACACGATATATACACACATATTTATATTTATA [CACACA_site6250]”, 9.65. As for “TCCAAATAAATATATTGTACAGAATTATTGATACCT [XGTACX_site327]”, the “gcPBM binding intensity (ln)” value came out at 9.14. To “ATGTTGTTATAAAGAGTGCAACGTATATGTATCCTT [GTGCAC_site9935]” belongs 9.32; to “AGAAAAGGAAAATAAACATGCAAAAATAATATTAAA [TGCATGCA_site337]”, 9.55; to “TATATACCACATTGTTGTACGACACATTTACATTTT [XGTACX_site8370]”, 9.59.

On to “ATGTCTTTGAAAAAAAGTACTTAAAATTATAAAAAT [XGTACX_site147]”, for which the “gcPBM binding intensity (ln)” value stood at 8.94.

In the case of “ACTGTCGTTTTAAAGAGTACATAAAATATTAAATTA [XGTACX_site3589]”, the “gcPBM binding intensity (ln)” value was 8.92. For “TTCTTTTAAAGGTATACATGCGCATGGATTTTTCAT [TGCATGCA_site223]”, the “gcPBM binding intensity (ln)” value was determined as 9.06. With “AATTAAAAAATTATCACACATATATATATATATATA [CACACA_site5789]”, the “gcPBM binding intensity (ln)” value worked out at 9.09.

For the sequence “TCAAAGCACAGATACACACACATATATATATATATA [CACACA_site287]”, the “gcPBM binding intensity (ln)” value worked out at 9.59.

As for “AAAACTATTAATGCAAAAAATAAAATATAATAATAA [XGTACX_negctrl_site524]”, the “gcPBM binding intensity (ln)” value was determined as 9.27. To “AAGTTAACAATATGAAGTACAAATGAAAAAAAAAAA [XGTACX_site666]” belongs 9.5. Take “TTGTTATAGAAGCATTCACACACACCCATACATACA [CACACA_site8414]”: the “gcPBM binding intensity (ln)” value came out at 9.87.

Regarding “ATATATATATATCATAGTACACATATGTGTCTCGTG [XGTACX_site774]”, the “gcPBM binding intensity (ln)” value was 9.51. Under “ATATATATTTATTTATGTACGAATAAATTTACGAAT [XGTACX_site5190]” stands 9.06; under “AATATCATTATATAAGTGCATTTTTTAAAAGATAAA [GTGCAC_site9479]”, 9.1; under “TTAATAGGTCGAAGTAGTACATAAAAATATATATAT [XGTACX_site5960]”, 9.33. “TAAACATTGTAAAGGAGTACAAAATTTTTTTTATGA [XGTACX_site7757]”: the “gcPBM binding intensity (ln)” value stood at 9.04. To “AATAATAAAAAATACACACACATATATATATATTAC [CACACA_site3464]” belongs 10.2.

With “AACATACAGAAACACACACACACACCCACACCCACA [CACACA_site493]”, the “gcPBM binding intensity (ln)” value was 10.3. To “CATACACAAGAAAATTCACACACACCCATATATATA [CACACA_site9288]” belongs 10.1; to “TCTTACAAAAAACAAACAGAGAAAAATATAAGGAAA [XGTACX_negctrl_site520]”, 9.53. As to “TTTTTTTTTTTGTATCGTACATTTATAATGTTTATA [XGTACX_site6804]”, the “gcPBM binding intensity (ln)” value was 9.28. To “TTTTTTTCATATAACACACACACAAAAATAATGTGG [CACACA_site3688]” belongs 9.67; to “TTTTCTAAATATTATAGTACTCTTAATAATATTAAC [XGTACX_site4222]”, 9.

TAAAAAATTAATAAAGTGCATAAATATTACAATATT: the “gcPBM binding intensity (ln)” value amounted to 9.22.

For “TTAACAAAATATAGCACACATAAATATATATTTATG [CACACA_site351]”, the “gcPBM binding intensity (ln)” value was 9.41.

As for “ATTCATATATTTATTGCATGCAAAGTAAAATAAATA [TGCATGCA_site307]”, the “gcPBM binding intensity (ln)” value amounted to 8.92. Under “AATATTAAAATATAAACACACAAAATTCAATTATAT [CACACA_site5971]” stands 9.61; under “GACATATTAGAAGGGTGTACATACTTTTAATCATTT [XGTACX_site1698]”, 9.28; under “TACATATATATATGTATATATATATATATATAAATA [XGTACX_negctrl_site351]”, 8.98. For “ATGAATAAATGAACATGTACATATATATATATATTA [XGTACX_site5005]”, the “gcPBM binding intensity (ln)” value was 9.29.

In the case of “ACATAACTGATATATACACACAATACAAATATAGAT [CACACA_site7328]”, the “gcPBM binding intensity (ln)” value amounted to 9.93. As to “AAATGTGCATTATGTTGTACAGTCGAAATTTTTTTT [XGTACX_site3812]”, the “gcPBM binding intensity (ln)” value was 9.19. To “AAATTAAAAAGAGCTTGTACAGATGTATACATAATA [XGTACX_site3882]” belongs 9.49; to “TTTATAATTCTTACAACACACAATGTACATTTATAT [CACACA_site1261]”, 9.42. To “AATTTATATGTTTTGTGTACACAATTTATTAAATTA [XGTACX_site6448]” belongs 9.27; to “TATATGAAGCTATAGACACACATATAAAAATAGAAT [CACACA_site1313]”, 9.47; to “TACATACAGATATATACACACATATAAAATATAGAT [CACACA_site6319]”, 9.86. Consider “ATTATATATAAATATACACACATATATAAAATACAT [CACACA_site5298]”, for which the “gcPBM binding intensity (ln)” value was found to be 9.65. Under AAGAGAAAAATATGGTTGCACTAAAAATATATATTT stands 9.17. With “TAATTTGAAAAATTGTGTACTCATAAAATAAATAAA [XGTACX_site2138]”, the “gcPBM binding intensity (ln)” value is 9.

Consider “GATTTATATATATAAAATAATTGAATATTTTCTTTT [CACACA_negctrl_site801]”, for which the “gcPBM binding intensity (ln)” value was 8.96. Turning to “ATAAAAAAATAAAACACACACATATAGATTATAGAT [CACACA_site7343]”, the “gcPBM binding intensity (ln)” value amounted to 9.99. Take “ATAGATGATATACGTAAACACACAAATAAAAAAAAT [CACACA_site9095]”: the “gcPBM binding intensity (ln)” value was determined as 9.72. Under “TTTATTTTTCATAATTGTACAAAAATAAATGGAAAC [XGTACX_site5144]” stands 9.19; under “TACAAATATAGACACACACACATATATATATATATA [CACACA_site585]”, 9.66. Take “ATAAAAGGAATATTTGCATGTGGTAGTACATAACAT [TGCATGCA_site978]”: the “gcPBM binding intensity (ln)” value is 9.44.

With “CATATATCATAAATATGTACGAAATAAAAGAATCAT [XGTACX_site942]”, the “gcPBM binding intensity (ln)” value was 9.54. On to “TTTTCTAAAATATTCATAATAAATCAAAAAAAAAAA [GTGCAC_negctrl_site320]”, for which the “gcPBM binding intensity (ln)” value amounted to 8.81. For “TATAAATATGTATATACACACTTTTAATATTCATAA [CACACA_site7856]”, the “gcPBM binding intensity (ln)” value was 9.2.

Consider “TTTTCTTACTATTGTAGTACAATATTATATTCTTTT [XGTACX_site1925]”, for which the “gcPBM binding intensity (ln)” value worked out at 9.46. In the case of “TGCGTATTCTTATTAGGTACACATATTCGTGATAAT [XGTACX_site5681]”, the “gcPBM binding intensity (ln)” value was 9.25. To “ATCGTGAATAATATCTGTACATATGAACACATATAT [XGTACX_site952]” belongs 9.38; to “TCACATACATGAAAATGTACTTTTATAATTCCATAA [XGTACX_site1836]”, 9.19; to “TATGACCTTAGAAATTGTACAAGAAAAAATGTTACA [XGTACX_site7084]”, 9.11. Regarding “ATATAAAATACATGGGTGCAATATATTAAACAAATA [GTGCAC_site9421]”, the “gcPBM binding intensity (ln)” value turned out to be 9.49. To “GTTATAAATAAATACACACATACAAAAATATGACGT [CACACA_site1154]” belongs 9.78; to “TCTGTAAATACGTGCACACACAAATCACAAATGTGA [CACACA_site330]”, 9.51. Consider “TAAATAATTTCACGAATGACAAAGATATAATAAGTT [CACACA_negctrl_site1430]”, for which the “gcPBM binding intensity (ln)” value was determined as 9.5. On to “TAAAGGTGAACAATACGTACATAAGAACTTATGAGG [XGTACX_site4216]”, for which the “gcPBM binding intensity (ln)” value came out at 9.32. Under “ATAAATACACACAAGTGTACATACTTCTATAAATAT [XGTACX_site1845]” stands 9.36. In the case of “TATTATATATTAAATGCATGTAAAAATAATATTAAA [TGCATGCA_site643]”, the “gcPBM binding intensity (ln)” value came to 9.12. Under “AATTATTTACCCTATACACACAAAACACGCTAAAAA [CACACA_site1211]” stands 9.81; under “ATATTATAATAAATGTGTACATATTGTAGAAATATT [XGTACX_site8101]”, 9.4.

“ATTTTGTGCGCACACACATGCAAAAAGAAATATGAT [TGCATGCA_site261]”: the “gcPBM binding intensity (ln)” value turned out to be 9.73. For the sequence “AAAGAGAGTATCTAATGTACGTATGTATGTATATAT [XGTACX_site1780]”, the “gcPBM binding intensity (ln)” value is 9.47. In the case of “TTTCGTAACTATTTGTGTACATATATATATATATAT [XGTACX_site2920]”, the “gcPBM binding intensity (ln)” value was determined as 9.25. For “ATTTTCTTTTCCATAGTGCAATATAATTATCCATCA [GTGCAC_site9547]”, the “gcPBM binding intensity (ln)” value is 9.29.
